From patent US20230310636A1, “COMBINATION THERAPIES FOR TREATMENT OF CANCER WITH THERAPEUTIC BINDING MOLECULES” (MedImmune Limited, priority 2022, published 2023) come the findings set out here.

Assay [1] relates to HBCx-39 model (high B7-H4-expressing, BRCA WT). Nature of the assay: TNBC PDX efficacy, HBCx-39. Conditions: E02-GL-SG3932 monotherapy, single 1.25 mg/kg IV; FIG. 12A. The format is in vivo, mice. How it is done:
Tumors were established as described in Example 6, and treatments were administered at the doses indicated in each panel. ADCs were delivered as a single bolus IV injection, and AZD5305 was delivered by oral gavage once daily for 28 days. FIGS. 12A-12B: Antitumor efficacy resulting from (A) 1.25 mg/kg or (B) 3.5 mg/kg ADC treatment alone or in combination with AZD5305 in the high B7-H4-expressing BRCA WT HBCx-39 model. FIGS. 12C-12D: Activity resulting from treatment of (C) high B7-H4-expressing BRCA1-mutant HBCx-24 and (D) BRCA1-hypomorphic HBCx-11 models. FIGS. 12E-12F: Efficacy resulting from treatment of (E) HBCx-8, a BRCA1-mutant model, and (F) HBCx-2, a BRCA WT model with low B7-H4 expression.
PDX models of human TNBC were established through subcutaneous implantation of tumor fragments into the flank of athymic nude mice (Envigo, Riom, France) and tested at Xentech (Evry, France). […] Antitumor activity was determined on the last day, at which time all mice in the untreated control group remained in the study. If the end tumor volume (ETV) in the treatment group was less than the initial tumor volume (ITV), the antitumor response from baseline was calculated from the group means by using the formula
Otherwise, the antitumor response was expressed as percent change in tumor volume in the treatment arm relative to that in the untreated control arm, calculated by the formula

Assay [2] relates to MDA-MB-468 breast cancer xenografts. Nature of the assay: MDA-MB-468 breast cancer xenograft, ADC with AZD5305. The format is in vivo, mice. Conditions: E02-GL-SG3932 individually, 0.1 mg/kg and 1 mg/kg, single IV; FIG. 7. How it is done:
MDA-MB-468 cells were injected 5×10^6 per mouse into the mammary fat pad of female CB-17 SCID mice. […] Tumor and body weight measurements were recorded twice weekly for the duration of the study.
All animal experiments were conducted in a facility accredited by the Association for Assessment and Accreditation of Laboratory Animal Care under the guidelines of AstraZeneca's Institutional Animal Care and Use Committee and appropriate animal research approvals. Cell line xenograft models were established through subcutaneous implantation of cells in 50% Matrigel (Corning, Corning, NY, USA) in either the right mammary fat pad (MX-1, MDA-MB-468) or left flank (HT29, HT29-huB7-H4) of female CB-17 mice (Envigo, Frederick, MD, USA). When tumor volume reached 150-200 mm^3, mice were randomized and given a single intravenous (IV) injection of vehicle control (20 mM histidine, pH 6; 240 mM sucrose; 0.02% PS-80) or ADCs. Body weight and tumor measurements were determined once or twice weekly, and tumor volume was calculated with the formula

B1: E02-GL-SG3932: E02-GL anti-B7-H4 antibody conjugated to the topoisomerase I payload SG3932, average DAR of 8 (conjugate)
heavy: QVQLQQWGAGLLKPSETLSLACTVYGGSFSGYYWNWIRQPPGKGLEWIGEINHSGSTSYNPSLKSRVTISVDTSKNQFSLKLSSVTAADTAVYYCARVLYNWNVDSWGQGTLVTVSSASTKGPSVFPLAPSSKSTSGGTAALGCLVKDYFPEPVTVSWNSGALTSGVHTFPAVLQSSGLYSLSSVVTVPSSSLGTQTYICNVNHKPSNTKVDKRV[not shown - human IgG1 Fc]
light: DIQMTQSPSSLSASVGDRVTITCRASQDIRNDVGWYQQKPGKAPKRLIYAASRLQSGVPSRFSGSGSGTEFTLTISSLQPEDFATYYCLQHNSYPRTFGQGTKVEIKRTVAAPSVFIFPPSDEQLKSGTASVVCLLNNFYPREAKVQWKVDNALQSGNSQESVTEQDSKDSTYSLSSTLTLSKADYEKHKVYACEVTHQGLSSPVTKSFNRGEC
Consider B1, for which, in assay [1], the TGI is 24.5%. In assay [2], the “anti-tumor activity in vivo (tumor size over time)” value is given as “little to no anti-tumor activity”.
